Measured values: the supplement of paper PMC9446081
Among all 39,000 compounds or so, about 220 (0.56%) showed activity. Some of the results follow.

Test system: Escherichia coli K-12 BW25113
Assay: relative growth (OD600 normalised to plate interquartile mean) (fraction); higher = less growth inhibition, active = 0.2 or less
Details: 50 µM; LB; incubation time: overnight (16-24 h)
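Note: static incubation at 37 °C against the wild-type strain, values averaged over two biological replicates.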

| Compound | relative growth |
| --- | --- |
| COc1ccc(S(=O)(=O)N(C)C[C@@H]2Oc3ccc(NC(=O)C4CC4)cc3C(=O)N([C@@H](C)CO)C[C@@H]2C)cc1 | inactive: 1.01 |
| C[C@H](O)C#Cc1cnc2c(c1)C(=O)N([C@@H](C)CO)C[C@H](C)[C@H](CN(C)C(=O)CN1CCOCC1)O2 | inactive: 0.996 |
| Cn1cnc(S(=O)(=O)N2CC[C@H](O)[C@@H]2Cc2cnn(C)c2)c1 | inactive: 0.996 |
| COc1ccc(NC(=O)N(C)C[C@H]2Oc3ccc(NC(=O)CCCCCC(=O)Nc4ccccc4N)cc3CC(=O)N([C@@H](C)CO)C[C@H]2C)cc1 | inactive: 0.959 |
| Cc1ccc(S(=O)(=O)Nc2ccc3c(c2)C(=O)N([C@H](C)CO)C[C@@H](C)[C@H](CN(C)Cc2ccc4c(c2)OCO4)OCCCC[C@H](C)O3)cc1 | inactive: 1.02 |
| C[C@H](CO)N1C[C@H](C)[C@@H](CN(C)C(=O)CCC(F)(F)F)OCCCC[C@H](C)Oc2ccc(NS(=O)(=O)c3ccc(Cl)cc3)cc2C1=O | inactive: 0.991 |
| CNC(=O)c1cnn(-c2nc(N)c3ncn([C@@H]4O[C@H](CO)[C@@H](O)[C@H]4O)c3n2)c1 | inactive: 0.905 |
| CC(C)CC#Cc1cnc2c(c1)C(=O)N([C@H](C)CO)C[C@@H](C)[C@H](CN(C)S(=O)(=O)c1cccs1)O2 | inactive: 1.03 |
| C[C@H](CO)N1C[C@H](C)[C@@H](CN(C)S(=O)(=O)c2ccccc2)Oc2ccc(NC(=O)CCCN(C)C)cc2CC1=O | inactive: 1 |
| COc1ccc(CNC(=O)C[C@@H]2CC[C@H]3[C@@H](COC[C@H](O)CN3S(=O)(=O)c3ccc(OC)cc3)O2)cc1 | inactive: 1.02 |
| Cc1noc(C)c1S(=O)(=O)Nc1ccc2c(c1)C(=O)N([C@H](C)CO)C[C@H](C)[C@@H](CN(C)S(=O)(=O)c1c(C)noc1C)O2 | inactive: 0.991 |
| C[C@H]1CCCCO[C@H](CN(C)C(=O)c2ccccc2)[C@@H](C)CN([C@@H](C)CO)C(=O)c2cc(NC(=O)Nc3ccc4c(c3)OCO4)ccc2O1 | inactive: 1.01 |
| C[C@H]1CN([C@@H](C)CO)C(=O)c2cccc(NS(C)(=O)=O)c2O[C@H]1CN(C)Cc1ccc(C(=O)O)cc1 | inactive: 0.989 |
| Cc1ccc(C(=O)Nc2ccc(S(=O)(=O)O)c3cc(S(=O)(=O)O)cc(S(=O)(=O)O)c23)cc1NC(=O)c1cccc(NC(=O)Nc2cccc(C(=O)Nc3cc(C(=O)Nc4ccc(S(=O)(=O)O)c5cc(S(=O)(=O)O)cc(S(=O)(=O)O)c45)ccc3C)c2)c1 | inactive: 1.01 |
| COC1(NC(=O)CSCC#N)C(=O)N2C(C(=O)[O-])=C(CSc3nnnn3C)CSC21.[Na+] (configuration not stated) | active: 0.0458 |
| C[C@H]1CN([C@@H](C)CO)S(=O)(=O)c2ccc(C#CC3(O)CCCC3)cc2O[C@H]1CN(C)C(=O)c1ccccc1 | inactive: 1 |
| CO[C@H](CN(C)S(=O)(=O)c1cn(C)cn1)[C@@H](C)CN(C(=O)Nc1ccc(C(F)(F)F)cc1)[C@H](C)CO | inactive: 0.725 |
| O=C(Nc1nccs1)[C@@H]1[C@@H](CO)[C@@H]2Cn3c(cccc3=O)[C@H]1N2C(=O)C1CC1 | inactive: 1.03 |
| C[C@H]1CCCCO[C@H](CN(C)S(=O)(=O)c2cccs2)[C@@H](C)CN([C@@H](C)CO)C(=O)c2cc(NC(=O)Nc3cccc4ccccc34)ccc2O1 | inactive: 1.02 |

| Compound | relative growth |
| --- | --- |
| C[C@@H]1CN([C@H](C)CO)S(=O)(=O)c2ccc(C#Cc3ccccc3F)cc2O[C@H]1CN(C)C(=O)c1ccc2c(c1)OCO2 | inactive: 1.04 |
| C[C@H]1CN([C@@H](C)CO)C(=O)c2cc(C#Cc3ccccc3)cnc2O[C@H]1CN(C)C(=O)CCN1CCCCC1 | inactive: 0.97 |
| COc1ccc(S(=O)(=O)N(C)C[C@@H]2OCCCC[C@H](C)Oc3ccc(NS(C)(=O)=O)cc3C(=O)N([C@H](C)CO)C[C@H]2C)cc1 | inactive: 1 |
| C[C@H](CO)N1C[C@H](C)[C@H](CN(C)S(=O)(=O)c2cn(C)cn2)Oc2ccc(NC(=O)CCCN(C)C)cc2CC1=O | inactive: 0.994 |
| C[C@@H]1CCCCO[C@H](CN(C)S(C)(=O)=O)[C@H](C)CN([C@H](C)CO)C(=O)c2cc(N(C)C)ccc2O1 | inactive: 0.984 |
| NC(=O)CCN1CCn2c1nc1ccccc12 | inactive: 0.995 |
| C[C@@H]1CN([C@@H](C)CO)C(=O)Cc2cc(NC(=O)Nc3ccc(C(F)(F)F)cc3)ccc2O[C@@H]1CN(C)Cc1ccccc1 | inactive: 1.07 |
| C[C@H]1CN([C@@H](C)CO)C(=O)c2cc(C#Cc3ccccc3)cnc2O[C@@H]1CN(C)C(=O)CCN1CCCCC1 | inactive: 1.02 |
| CCN(CC)CCCC(C)Nc1ccnc2cc(Cl)ccc12.O=P(O)(O)O.O=P(O)(O)O (configuration not stated) | inactive: 1.14 |
| CO[C@@H]1CN(C)C(=O)c2ccc(NC(=O)c3ccccc3)cc2OC[C@H](C)N(C(=O)CN(C)C)C[C@H]1C | inactive: 0.908 |
| C[C@@H]1CN([C@H](C)CO)C(=O)Cc2cc(NS(=O)(=O)c3cn(C)cn3)ccc2O[C@@H]1CN(C)S(=O)(=O)c1ccc(F)cc1 | inactive: 1.02 |
| C[C@@H]1CN([C@@H](C)CO)C(=O)c2cccc(NS(=O)(=O)c3ccc(F)cc3)c2O[C@H]1CN(C)S(=O)(=O)c1cn(C)cn1 | inactive: 0.99 |
| COc1ccc(S(=O)(=O)N(C)C[C@H]2Oc3ccc(NC(=O)C4CC4)cc3CC(=O)N([C@H](C)CO)C[C@H]2C)cc1 | inactive: 0.977 |
| COc1ccc2c3c(n(c2c1)C)[C@H](CO)N(C[C@]13CN(C1)C(=O)c1ccncc1)C(=O)C1CCOCC1 | inactive: 0.961 |
| C[C@@H]1CN([C@@H](C)CO)C(=O)Cc2cc(NS(=O)(=O)c3ccc(F)cc3)ccc2O[C@@H]1CN(C)S(=O)(=O)c1ccccc1 | inactive: 1.02 |
| COC(=O)[C@@H](NC(=O)Cn1cc(COc2ccccc2/C=C(C)/C=C/C(=O)NO)nn1)c1ccccc1 | inactive: 0.913 |
| C[C@@H]1CN([C@@H](C)CO)C(=O)c2cc(NS(=O)(=O)c3ccccc3)ccc2O[C@@H]1CN(C)C(=O)Nc1cccc2ccccc12 | inactive: 1.03 |
| CO[C@H](CN(C)C(=O)c1ccccc1F)[C@@H](C)CN([C@H](C)CO)S(=O)(=O)c1ccc(Cl)cc1 | inactive: 0.973 |
| C[C@@H]1CN([C@@H](C)CO)C(=O)c2cc(C#Cc3ccccn3)cnc2O[C@@H]1CN(C)C(=O)CCN1CCCCC1 | inactive: 0.993 |

| Compound | relative growth |
| --- | --- |
| COCC#Cc1cnc2c(c1)C(=O)N([C@@H](C)CO)C[C@@H](C)[C@@H](CN(C)C(=O)c1cnccn1)O2 | inactive: 0.999 |
| C[C@@H]1CN([C@@H](C)CO)C(=O)Cc2cc(NC(=O)CCCCCC(=O)Nc3ccccc3N)ccc2O[C@@H]1CN(C)Cc1ccc(-c2ccccc2)cc1 | inactive: 0.98 |
| C[C@H]1CN([C@@H](C)CO)C(=O)c2cc(C#CC3CCCC3)cnc2O[C@@H]1CN(C)S(=O)(=O)c1cccc(F)c1 | inactive: 0.993 |
| C[C@H](CO)N1C[C@H](C)[C@H](CN(C)Cc2ccc3c(c2)OCO3)OCCCC[C@H](C)Oc2ccc(NC(=O)NC3CCCCC3)cc2C1=O | inactive: 1.02 |
| CC(C)NC(=O)Nc1ccc2c(c1)C(=O)N([C@@H](C)CO)C[C@H](C)[C@@H](CN(C)C(=O)Nc1ccc3c(c1)OCO3)O2 | inactive: 0.994 |
| C[C@@H]1CN([C@H](C)CO)C(=O)c2cc(NC(=O)C3CCCCC3)ccc2O[C@@H](C)CCCCO[C@H]1CN(C)Cc1ccc2c(c1)OCO2 | inactive: 0.948 |
| C[C@H](CO)N1C[C@H](C)[C@@H](CN(C)Cc2ccc(-c3ccccc3)cc2)Oc2ccc(NC(=O)C3CCCCC3)cc2C1=O | inactive: 0.952 |
| COc1ccc(S(=O)(=O)Nc2cccc3c2O[C@H](CN(C)CC2CC2)[C@H](C)CN([C@H](C)CO)C3=O)cc1 | inactive: 1 |
| Cc1noc(C)c1S(=O)(=O)Nc1ccc2c(c1)C(=O)N([C@H](C)CO)C[C@H](C)[C@H](CN(C)Cc1ccccc1)O2 | inactive: 0.976 |
| Cl.[LiH] | inactive: 1.01 |
| C[C@H]1CN([C@@H](C)CO)C(=O)c2cc(C#CCN(C)C)cnc2O[C@H]1CN(C)Cc1cccc(C(=O)O)c1 | inactive: 0.997 |
| Cn1cnc(S(=O)(=O)N2C[C@H](O)COC[C@@H]3O[C@H](CC(=O)N4CCN(c5ccccc5)CC4)CC[C@H]32)c1 | inactive: 0.988 |
| C[C@H]1CN([C@@H](C)CO)C(=O)c2cccc(NS(C)(=O)=O)c2O[C@@H]1CN(C)Cc1ccc(C(=O)Nc2ccccc2N)cc1 | inactive: 0.995 |
| C[C@H]1CCCCO[C@H](CN(C)C(=O)CCCN(C)C)[C@@H](C)CN([C@@H](C)CO)C(=O)c2cc(N(C)C)ccc2O1 | inactive: 1 |
| Cc1noc(C)c1S(=O)(=O)Nc1ccc2c(c1)C(=O)N([C@H](C)CO)C[C@H](C)[C@H](CN(C)Cc1ccc(C(F)(F)F)cc1)OCCCC[C@@H](C)O2 | inactive: 0.906 |
| C[C@@H]1CN([C@H](C)CO)C(=O)c2cc(N(C)C)ccc2O[C@@H](C)CCCCO[C@@H]1CN(C)S(=O)(=O)c1cn(C)cn1 | inactive: 1.03 |
| COc1ccc(CN(C)C[C@H]2OCCCC[C@H](C)Oc3ccc(NC(=O)C4CCCCC4)cc3C(=O)N([C@@H](C)CO)C[C@H]2C)cc1 | inactive: 0.963 |
| COc1ccc(S(=O)(=O)N(C)C[C@@H]2OCCCC[C@H](C)Oc3ccc(NS(=O)(=O)c4ccc(Cl)cc4)cc3C(=O)N([C@@H](C)CO)C[C@@H]2C)cc1 | inactive: 1.06 |
| CC1(C)[C@H](C(N)=O)CC[C@@]1(C)C(=O)O | inactive: 1 |
